The record followed here is PMC5550695.

These are yes or no findings as the source states them, for the method shown. For part of these data: In cells and extracts the contact can be indirect. Some binding calls cover weakened binding; strength is not graded here. Tags and fused reporters may be left off the sequences shown.

The labels stand for the following.
T1: Arabidopsis MKKK20, split-YFP fusion for BiFC (Arabidopsis thaliana) (UniProt Q9SND6)
T1 sequence: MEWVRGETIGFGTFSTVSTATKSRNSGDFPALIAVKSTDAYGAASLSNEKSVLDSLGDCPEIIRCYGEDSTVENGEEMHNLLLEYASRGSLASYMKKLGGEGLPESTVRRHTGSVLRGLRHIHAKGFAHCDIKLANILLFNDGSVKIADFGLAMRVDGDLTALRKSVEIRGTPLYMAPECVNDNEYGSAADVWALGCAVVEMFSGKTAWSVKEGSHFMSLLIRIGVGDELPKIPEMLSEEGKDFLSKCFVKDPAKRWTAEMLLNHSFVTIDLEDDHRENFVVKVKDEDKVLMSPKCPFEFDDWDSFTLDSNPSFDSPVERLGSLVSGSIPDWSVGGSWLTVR

T2: Arabidopsis MKKK20, GAL4 DNA-binding domain bait in pDEST32 (Arabidopsis thaliana) (UniProt Q9SND6)
T2 sequence: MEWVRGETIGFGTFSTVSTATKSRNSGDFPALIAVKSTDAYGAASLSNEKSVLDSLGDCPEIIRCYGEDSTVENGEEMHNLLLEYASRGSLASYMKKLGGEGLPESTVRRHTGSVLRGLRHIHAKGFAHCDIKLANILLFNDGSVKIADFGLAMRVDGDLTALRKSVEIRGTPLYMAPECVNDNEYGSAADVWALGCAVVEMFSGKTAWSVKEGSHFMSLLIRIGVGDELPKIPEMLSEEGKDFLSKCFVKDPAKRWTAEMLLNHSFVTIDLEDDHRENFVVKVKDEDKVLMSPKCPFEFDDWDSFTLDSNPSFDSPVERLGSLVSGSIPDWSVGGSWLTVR

B1: Arabidopsis MKK3, split-YFP fusion for BiFC (enzyme, UniProt O80396 1-520)
chain: MAALEELKKKLSPLFDAEKGFSSSSSLDPNDSYLLSDGGTVNLLSRSYGVYNFNELGLQKCTSSHVDESESSETTYQCASHEMRVFGAIGSGASSVVQRAIHIPNHRILALKKINIFEREKRQQLLTEIRTLCEAPCHEGLVDFHGAFYSPDSGQISIALEYMNGGSLADILKVTKKIPEPVLSSLFHKLLQGLSYLHGVRHLVHRDIKPANLLINLKGEPKITDFGISAGLENSMAMCATFVGTVTYMSPERIRNDSYSYPADIWSLGLALFECGTGEFPYIANEGPVNLMLQILDDPSPTPPKQEFSPEFCSFIDACLQKDPDARPTADQLLSHPFITKHEKERVDLATFVQSIFDPTQRLKDLADMLTIHYYSLFDGFDDLWHHAKSLYTETSVFSFSGKHNTGSTEIFSALSDIRNTLTGDLPSEKLVHVVEKLHCKPCGSGGVIIRAVGSFIVGNQFLICGDGVQAEGLPSFKDLGFDVASRRVGRFQEQFVVESGDLIGKYFLAKQELYITNLD
B2: Arabidopsis MKK9, GAL4-activating domain prey in pDEST22 (enzyme, UniProt Q9FX43 1-310)
chain: MALVRERRQLNLRLPLPPISDRRFSTSSSSATTTTVAGCNGISACDLEKLNVLGCGNGGIVYKVRHKTTSEIYALKTVNGDMDPIFTRQLMREMEILRRTDSPYVVKCHGIFEKPVVGEVSILMEYMDGGTLESLRGGVTEQKLAGFAKQILKGLSYLHALKIVHRDIKPANLLLNSKNEVKIADFGVSKILVRSLDSCNSYVGTCAYMSPERFDSESSGGSSDIYAGDIWSFGLMMLELLVGHFPLLPPGQRPDWATLMCAVCFGEPPRAPEGCSEEFRSFVECCLRKDSSKRWTAPQLLAHPFLREDL
B3: Arabidopsis MKK5, GAL4-activating domain prey in pDEST22 (enzyme, UniProt Q8RXG3 1-348)
chain: MKPIQSPSGVASPMKNRLRKRPDLSLPLPHRDVALAVPLPLPPPSSSSSAPASSSAISTNISAAKSLSELERVNRIGSGAGGTVYKVIHTPTSRPFALKVIYGNHEDTVRRQICREIEILRSVDHPNVVKCHDMFDHNGEIQVLLEFMDQGSLEGAHIWQEQELADLSRQILSGLAYLHRRHIVHRDIKPSNLLINSAKNVKIADFGVSRILAQTMDPCNSSVGTIAYMSPERINTDLNHGRYDGYAGDVWSLGVSILEFYLGRFPFAVSRQGDWASLMCAICMSQPPEAPATASQEFRHFVSCCLQSDPPKRWSAQQLLQHPFILKATGGPNLRQMLPPPRPLPSAS
B4: Arabidopsis MPK18, GAL4-activating domain fusion (enzyme, UniProt Q9C5C0 1-615)
chain: MQQNQVKKGTKEMEFFTEYGDANRYRILEVIGKGSYGVVCAAIDTHTGEKVAIKKINDVFEHISDALRILREVKLLRLLRHPDIVEIKSIMLPPSKREFKDIYVVFELMESDLHQVIKANDDLTREHHQFFLYQMLRALKFMHTANVYHRDLKPKNILANANCKLKVCDFGLARVAFNDTPTTVFWTDYVATRWYRAPELCGSFFSKYTPAIDVWSIGCIFAEVLTGKPLFPGKSVVHQLELITDLLGTPKSETISGVRNDKARKYLTEMRKKNPVTFSQKFSKADPLALRLLQRLLAFDPKDRPTPAEALADPYFKGLSKIEREPSSQQISKMEFEFERRRLTKDDIRELIYREILEYHPQLLKDYMSGSEGSNFVYPSAIGHLRQQFTYLEENSSRNGPVIPLERKHASLPRSTVHSTVVHSTSQPNLGATDSRRVSFEPSKNGASSAGHPSTSAYPTKSIGPPPRVPPSGRPGRVVESSVSYENGRNLKEAYFRSAVSSPHCYFRPNTMTNPENRNIEASSFPPKPQNPVHQFSPTEPPAATTNQADVETMNHPNPYFQPQLPKTDQLNNNTHMAIDAKLLQAQSQFGPAGAAAVAVAAHRNIGTISYSAAS
B5: Arabidopsis MKK1, GAL4-activating domain prey in pDEST22 (enzyme, UniProt Q94A06 1-354)
chain: MNRGSLCPNPICLPPLEQSISKFLTQSGTFKDGDLRVNKDGIQTVSLSEPGAPPPIEPLDNQLSLADLEVIKVIGKGSSGNVQLVKHKLTQQFFALKVIQLNTEESTCRAISQELRINLSSQCPYLVSCYQSFYHNGLVSIILEFMDGGSLADLLKKVGKVPENMLSAICKRVLRGLCYIHHERRIIHRDLKPSNLLINHRGEVKITDFGVSKILTSTSSLANSFVGTYPYMSPERISGSLYSNKSDIWSLGLVLLECATGKFPYTPPEHKKGWSSVYELVDAIVENPPPCAPSNLFSPEFCSFISQCVQKDPRDRKSAKELLEHKFVKMFEDSDTNLSAYFTDAGSLIPPLAN
B6: Arabidopsis MKK2, GAL4-activating domain prey in pDEST22 (enzyme, UniProt Q9S7U9 1-363)
chain: MKKGGFSNNLKLAIPVAGEQSITKFLTQSGTFKDGDLRVNKDGVRIISQLEPEVLSPIKPADDQLSLSDLDMVKVIGKGSSGVVQLVQHKWTGQFFALKVIQLNIDEAIRKAIAQELKINQSSQCPNLVTSYQSFYDNGAISLILEYMDGGSLADFLKSVKAIPDSYLSAIFRQVLQGLIYLHHDRHIIHRDLKPSNLLINHRGEVKITDFGVSTVMTNTAGLANTFVGTYNYMSPERIVGNKYGNKSDIWSLGLVVLECATGKFPYAPPNQEETWTSVFELMEAIVDQPPPALPSGNFSPELSSFISTCLQKDPNSRSSAKELMEHPFLNKYDYSGINLASYFTDAGSPLATLGNLSGTFSV
B7: Arabidopsis MKK3, GAL4-activating domain prey in pDEST22 (enzyme, UniProt O80396 1-520)
chain: MAALEELKKKLSPLFDAEKGFSSSSSLDPNDSYLLSDGGTVNLLSRSYGVYNFNELGLQKCTSSHVDESESSETTYQCASHEMRVFGAIGSGASSVVQRAIHIPNHRILALKKINIFEREKRQQLLTEIRTLCEAPCHEGLVDFHGAFYSPDSGQISIALEYMNGGSLADILKVTKKIPEPVLSSLFHKLLQGLSYLHGVRHLVHRDIKPANLLINLKGEPKITDFGISAGLENSMAMCATFVGTVTYMSPERIRNDSYSYPADIWSLGLALFECGTGEFPYIANEGPVNLMLQILDDPSPTPPKQEFSPEFCSFIDACLQKDPDARPTADQLLSHPFITKHEKERVDLATFVQSIFDPTQRLKDLADMLTIHYYSLFDGFDDLWHHAKSLYTETSVFSFSGKHNTGSTEIFSALSDIRNTLTGDLPSEKLVHVVEKLHCKPCGSGGVIIRAVGSFIVGNQFLICGDGVQAEGLPSFKDLGFDVASRRVGRFQEQFVVESGDLIGKYFLAKQELYITNLD
B8: Arabidopsis MKK8, GAL4-activating domain prey in pDEST22 (enzyme, UniProt Q9M8J5 1-309)
chain: MVMVRDNQFLNLKLSPIQAPTTIPPCRFPIIPATKVSATVSSCASNTFSVANLDRISVLGSGNGGTVFKVKDKTTSEIYALKKVKENWDSTSLREIEILRMVNSPYVAKCHDIFQNPSGEVSILMDYMDLGSLESLRGVTEKQLALMSRQVLEGKNYLHEHKIVHRDIKPANLLRSSKEEVKIADFGVSKIVVRSLNKCNSFVGTFAYMSPERLDSEADGVTEEDKSNVYAGDIWSFGLTMLEILVGYYPMLPDQAAIVCAVCFGEPPKAPEECSDDLKSFMDCCLRKKASERWTASQLLNHPFLLHQD
B9: Arabidopsis MKK4, GAL4-activating domain prey in pDEST22 (enzyme, UniProt O80397 1-366)
chain: MRPIQSPPGVSVPVKSRPRRRPDLTLPLPQRDVSLAVPLPLPPTSGGSGGSSGSAPSSGGSASSTNTNSSIEAKNYSDLVRGNRIGSGAGGTVYKVIHRPSSRLYALKVIYGNHEETVRRQICREIEILRDVNHPNVVKCHEMFDQNGEIQVLLEFMDKGSLEGAHVWKEQQLADLSRQILSGLAYLHSRHIVHRDIKPSNLLINSAKNVKIADFGVSRILAQTMDPCNSSVGTIAYMSPERINTDLNQGKYDGYAGDIWSLGVSILEFYLGRFPFPVSRQGDWASLMCAICMSQPPEAPATASPEFRHFISCCLQREPGKRRSAMQLLQHPFILRASPSQNRSPQNLHQLLPPPRPLSSSSSPTT
B10: Arabidopsis MKK10, GAL4-activating domain prey in pDEST22 (enzyme, UniProt Q9LQM8 1-305)
chain: MTLVRERRHQEPLTLSIPPLIYHGTAFSVASSSSSSPETSPIQTLNDLEKLSVLGQGSGGTVYKTRHRRTKTLYALKVLRPNLNTTVTVEADILKRIESSFIIKCYAVFVSLYDLCFVMELMEKGSLHDALLAQQVFSEPMVSSLANRILQGLRYLQKMGIVHGDIKPSNLLINKKGEVKIADFGASRIVAGGDYGSNGTCAYMSPERVDLEKWGFGGEVGFAGDVWSLGVVVLECYIGRYPLTKVGDKPDWATLFCAICCNEKVDIPVSCSLEFRDFVGRCLEKDWRKRDTVEELLRHSFVKNR
B11: Arabidopsis MKK7, GAL4-activating domain prey in pDEST22 (enzyme, UniProt Q9LPQ3 1-307)
chain: MALVRKRRQINLRLPVPPLSVHLPWFSFASSTAPVINNGISASDVEKLHVLGRGSSGIVYKVHHKTTGEIYALKSVNGDMSPAFTRQLAREMEILRRTDSPYVVRCQGIFEKPIVGEVSILMEYMDGGNLESLRGAVTEKQLAGFSRQILKGLSYLHSLKIVHRDIKPANLLLNSRNEVKIADFGVSKIITRSLDYCNSYVGTCAYMSPERFDSAAGENSDVYAGDIWSFGVMILELFVGHFPLLPQGQRPDWATLMCVVCFGEPPRAPEGCSDEFRSFVDCCLRKESSERWTASQLLGHPFLRESL
B12: Arabidopsis MKK6, GAL4-activating domain prey in pDEST22 (enzyme, UniProt Q9FJV0 1-356)
chain: MVKIKSNLKQLKLSVPAQESPISSFLTASGTFHDGDFLLNQKGLRLTSDEKQSRQSDSKELDFEITAEDLETVKVIGKGSGGVVQLVRHKWVGKFFAMKVIQMNIQEEIRKQIVQELKINQASSQCPHVVVCYHSFYHNGAFSLVLEYMDRGSLADVIRQVKTILEPYLAVVCKQVLLGLVYLHNERHVIHRDIKPSNLLVNHKGEVKISDFGVSASLASSMGQRDTFVGTYNYMSPERISGSTYDYSSDIWSLGMSVLECAIGRFPYLESEDQQNPPSFYELLAAIVENPPPTAPSDQFSPEFCSFVSACIQKDPPARASSLDLLSHPFIKKFEDKDIDLGILVGTLEPPVNYLR

One assay concerns the target T1, Arabidopsis MKKK20, split-YFP fusion for BiFC (Arabidopsis thaliana). Nature of the assay: split reporter; BiFC with split YFP (pUC-SPYCE / pUC-SPYNE) in onion epidermal cells, transient transformation by microparticle bombardment, fluorescence microscopy.
For B1, the binding entry is listed as “binds”.

For another assay, the target named is T2, Arabidopsis MKKK20, GAL4 DNA-binding domain bait in pDEST32 (Arabidopsis thaliana). The experiment in a line: two-hybrid; directed pairwise test, ProQuest system, yeast strain MaV203; DBD bait and AD prey introduced pairwise; HIS3 and URA3 activation scored by visual comparison to the controls.
As to B2, the binding result is “no binding”.

On to B3, for which the binding result is recorded as “no binding”.

As for B4, the binding result is listed as “binds”.

As to B5, the binding entry is recorded as “no binding”.

Turning to B6, the binding result was “no binding”.

With B7, the binding result is reported as “binds”.

As for B8, the binding entry is on record as “no binding”.

Turning to B9, the binding result is “no binding”.

As to B10, the binding entry is on record as “no binding”.

B11: the binding result is given as “no binding”.

Regarding B12, the binding result is on record as “no binding”.
